# Measured values as given in article PMC4242493.
# The list shows a part of the results. The list includes weakly bound sequences.
# Target: MaxL homodimer (UniProt P61244)
# Assay: universal protein-binding microarray (PBM)
# Conditions: PBS-based mixture, 10 nM His-tagged protein dimer, 2% milk, 200 ng/uL BSA, 50 ng/uL salmon testes DNA, 0.02% TX-100; detection with Alexa 488 anti-His …; high values mean tight binding; most listed sequences are background and not binding sites; double strand, one strand shown
# Sequence of UniProt P61244 (P61244 whole entry): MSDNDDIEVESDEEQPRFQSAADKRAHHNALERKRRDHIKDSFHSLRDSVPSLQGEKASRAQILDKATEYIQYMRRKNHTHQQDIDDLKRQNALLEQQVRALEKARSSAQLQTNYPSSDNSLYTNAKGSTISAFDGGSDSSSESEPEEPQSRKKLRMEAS
row,Sequence,binding signal (normalized occupancy)
1,CCATGCGG,0.145
2,CATAGAGC,0.0703
3,GCTATTAC,0.0796
4,AAAGGCGT,0.0786
5,ATCGACGC,0.0747
6,GCAGCTAA,0.0644
7,ACTACTAT,0.0796
8,AATACGGC,0.0752
9,ACTGACCC,0.071
10,AGGCAGGC,0.0704
11,CTGTTCTA,0.0715
12,AGTTTGGA,0.0697
13,GGGTCCTA,0.0766
14,GTCTTCTA,0.0715
15,ATTCACGA,0.0811
16,CGTGGCAA,0.0854
17,GATGTAAC,0.0737
18,AGGTGATG,0.0834
19,ACACAATG,0.0862
20,GACGGGAC,0.0691
21,CGCAGCCA,0.0737
22,CCATGAGG,0.112
23,ATGTTGCC,0.0821
24,CGAATGGA,0.0769
25,AATGGTCC,0.076

row,Sequence,binding signal (normalized occupancy)
1,AGAGATGG,0.0775
2,AAGGGCGT,0.0776
3,AAAGCTCT,0.0662
4,CGTGGTGA,0.0873
5,AGGGTACT,0.0763
6,AACTGCTA,0.0748
7,GGGGTTAC,0.0754
8,AAGTTGGG,0.0725
9,ATAAGACA,0.0814
10,AATCCACG,0.0813
11,AGCGCGAA,0.0706
12,CAACGAGC,0.0753
13,CTTCCGCA,0.0717
14,ATATTAAC,0.0811
15,CTGCGCCA,0.071
16,GTACAATA,0.0724
17,AACACTGT,0.075
18,GCCTGGCA,0.0722
19,GACGCTCC,0.0684
20,ACTACGGA,0.0737
21,ACCGCTGG,0.0691
22,CCTATGAG,0.0757
23,ACTGGTAA,0.0679
24,CCATCGAA,0.0774
25,CTGGTGAC,0.0739

row,Sequence,binding signal (normalized occupancy)
1,AGCTGTGC,0.076
2,AGCGAGAA,0.0736
3,CATCTTCA,0.0786
4,AGCCCCGC,0.0752
5,TACTAAAA,0.0751
6,AGTGACAT,0.0809
7,TATTCGCA,0.0764
8,CATGCACC,0.0986
9,AAGTAGCT,0.077
10,CTACATAA,0.0783
11,GTAACAGA,0.0764
12,CAGAGTGG,0.0742
13,CGGACACG,0.0853
14,CACGCCCC,0.0836
15,ACATCTCA,0.082
16,CACAATAG,0.0745
17,CAACAGAA,0.0741
18,CGCTATCC,0.0788
19,ACGGAACT,0.0707
20,TGCAATAA,0.0785
21,ACCCGACT,0.0759
22,GTGGGCAA,0.0738
23,CACTCTTC,0.0777
24,GTCTTTGA,0.0743
25,GTAATCAC,0.0838

row,Sequence,binding signal (normalized occupancy)
1,CATGATGC,0.0927
2,CGAGAAAG,0.0717
3,CCTTCATC,0.0752
4,ATAAGGAT,0.0805
5,ACTCGGGC,0.0729
6,CACTAGCG,0.0725
7,AAGAACCC,0.0724
8,GACCTTCC,0.0735
9,AACTGGGC,0.0659
10,CATCCATG,0.0885
11,GAACAAAC,0.0755
12,ACGTCGTG,0.0854
13,CACCGGTA,0.0714
14,CCCGTCAC,0.0706
15,AGGCTGAC,0.0721
16,GCCCTTAC,0.0732
17,TACTATCA,0.0801
18,CCCCGGCG,0.0717
19,AGATATCA,0.0855
20,AGTCACAT,0.101
21,GCTGTTGA,0.0741
22,AAGTTGCC,0.0725
23,GCGACCGC,0.0711
24,AAAGTTAT,0.0744
25,AATAAACC,0.073

row,Sequence,binding signal (normalized occupancy)
1,AGCTACTC,0.0687
2,AACAGCAC,0.0765
3,AGATCGCA,0.077
4,AATCTGCA,0.0834
5,ACTCCCGG,0.0685
6,TTCTAAAA,0.0721
7,CCAAACAA,0.072
8,AGTGGAGC,0.0744
9,CTGGCGAC,0.0691
10,ACTCCGCG,0.0742
11,CGATCGCA,0.0798
12,ATATCCAC,0.084
13,ATTTCTTG,0.0741
14,GGGTAATA,0.0812
15,AGATATTG,0.0757
16,AGTGAGAA,0.0719
17,TGCGACCA,0.0803
18,AAAAACGC,0.0702
19,ACAGCGCG,0.0842
20,GGGGGTGA,0.0836
21,AAATCGAC,0.0703
22,AAAATAGG,0.076
23,CCGCAACC,0.0736
24,CGGTCATA,0.0757
25,AGCCTAAG,0.0763

row,Sequence,binding signal (normalized occupancy)
1,AAACGGGC,0.0704
2,CTCGATCA,0.0807
3,CGACCGTA,0.073
4,ACAACAAC,0.0714
5,GAAAGGCA,0.0721
6,TAAGAGTA,0.0797
7,CCTCTAAG,0.0744
8,ACTGTATA,0.0826
9,ACGTCACA,0.0842
10,CGACAACA,0.0842
11,AGAGTAAG,0.0725
12,AACATACA,0.086
13,AATACAGA,0.0772
14,AGCGGAAG,0.0676
15,CGGCCGTC,0.0643
16,TCTAGAGA,0.0758
17,ATATCTAC,0.0859
18,AGCAACAG,0.0757
19,GAGTTATA,0.0774
20,AGAGCACG,0.0859
21,AGACGGTG,0.0721
22,CTGGCAGA,0.0678
23,CCAGAAGG,0.0714
24,ACTCAAGT,0.0728
25,ACCGATTG,0.0737

row,Sequence,binding signal (normalized occupancy)
1,GTCCGTCA,0.0716
2,CAGCGCAC,0.075
3,GATTTTCA,0.0762
4,AAGAGTGT,0.0784
5,ACAGCTCA,0.0767
6,ATTCCTAG,0.0726
7,ATTGAGTA,0.0758
8,CAGGAAAG,0.0722
9,ACTCTTGC,0.0761
10,ACTTTAAG,0.0722
11,GTTCGAGA,0.0769
12,AAACCACT,0.075
13,CGCTCAAA,0.0736
14,ACATGATG,0.0932
15,AATGAAGG,0.0771
16,CATAGCAG,0.0793
17,CCCCGACA,0.0729
18,CCGGCAGG,0.0654
19,AAGCAGAC,0.071
20,CGTTTATC,0.0816
21,ATCGAAAT,0.0735
22,CTTTGGTA,0.0682
23,AACTAAGT,0.077
24,GTCTCCCA,0.0745
25,CGGCGTGC,0.0923

row,Sequence,binding signal (normalized occupancy)
1,GAGATCAC,0.0846
2,CCCCTCCC,0.0739
3,CCAAATCG,0.0705
4,CCGGACGC,0.0717
5,CAGCGCCC,0.0653
6,ATGGGTTA,0.0848
7,AGCCCCCT,0.0762
8,AGCCAAGA,0.0753
9,GGCGTTAA,0.0768
10,CCCAGTGC,0.0744
11,AGTGTTAC,0.0737
12,ACCTCGCT,0.0768
13,GCACCTAA,0.0729
14,CAGTAGAC,0.07
15,ACACAGTC,0.0783
16,AACTTAGG,0.0708
17,TATCCTAA,0.0769
18,AAGACAAG,0.0722
19,ACCTACCC,0.0757
20,AGTCTCTG,0.0686
21,ACAATTGA,0.0762
22,AGCAATTA,0.0722
23,TAGGCCCA,0.0774
24,GGTAAGTA,0.0814
25,AAAGGTTC,0.071

row,Sequence,binding signal (normalized occupancy)
1,CCGATCAA,0.0728
2,GGATAGAA,0.0754
3,GACTAGAA,0.0772
4,TTCAACAA,0.074
5,TACGTGGA,0.0878
6,GGTTTGCA,0.075
7,CGCCCCGA,0.0666
8,CAAGCCTA,0.073
9,AAGCAATA,0.0779
10,CCGACGGA,0.0712
11,ACGTCTAC,0.0712
12,AAGTACGT,0.0761
13,AGGCAGTA,0.0728
14,CTGCGGCC,0.0759
15,GAATTTCA,0.0701
16,ACTTGGAG,0.0749
17,CGATTACC,0.0718
18,ACACACAT,0.0933
19,CACTGGAG,0.0697
20,ATGAGGTG,0.0912
21,ACGTTAGC,0.0827
22,CTACCCTC,0.0785
23,GGTGGCAC,0.0789
24,CTCAGGTC,0.0673
25,GGAAAGGA,0.0727

row,Sequence,binding signal (normalized occupancy)
1,GGCAAAAC,0.0695
2,AACTCTAG,0.0718
3,AGATACGC,0.0745
4,CCAGAGTA,0.07
5,AGGTGCAA,0.0732
6,AAAGAGCA,0.0761
7,CTTAGACC,0.0714
8,AGCGTACT,0.0725
9,AGCATCCA,0.0745
10,CACGCTCA,0.0911
11,CTGTGTAA,0.0739
12,ACAAATGG,0.0846
13,TGGGCGAA,0.0787
14,CCGGCTAA,0.0678
15,AATATCTG,0.0769
16,CGCCTCAA,0.0686
17,GCAGCTGA,0.0699
18,CCTCGCCC,0.0743
19,CTCATCTA,0.0801
20,TGCAGGAA,0.0773
21,AAGGTTGC,0.074
22,CCGTTCCC,0.0767
23,ACGTTCAC,0.0869
24,GGTTCAAC,0.0739
25,CACCCCAA,0.0828

row,Sequence,binding signal (normalized occupancy)
1,CTAGCTTA,0.0705
2,TGGTACAA,0.0836
3,CAGAGACC,0.0727
4,ACCGAACG,0.0693
5,CGCCGGAC,0.0751
6,AGCTGAAT,0.073
7,GTCATGGA,0.0831
8,ACCCCTTA,0.0764
9,GAAAACTC,0.0701
10,AATTCTGC,0.0713
11,CGAACGCG,0.0729
12,CGACGGGA,0.0752
13,ATTAATGG,0.0784
14,AGTGGCGA,0.0707
15,CCTTAGTC,0.0691
16,CCGGTACA,0.0743
17,ACCGGAGA,0.0719
18,GTAACCAC,0.0808
19,GTTACGGA,0.0697
20,GCACGACA,0.0849
21,ATAGTGTC,0.0799
22,CGAACGTC,0.0695
23,CTGCACCA,0.0748
24,AGAGTTGG,0.0732
25,ATCAACTA,0.0737

row,Sequence,binding signal (normalized occupancy)
1,CAGTTTAG,0.0719
2,AACGAGCC,0.0647
3,GCACAACC,0.0725
4,GAGGTAGC,0.073
5,CGGGGGAA,0.0708
6,CCTAGAAC,0.0744
7,GGAATATA,0.0779
8,CTTCAACA,0.0819
9,AGGTGCAT,0.0863
10,CTAGATGC,0.0774
11,AACTGTTG,0.0743
12,CTACCTTC,0.0783
13,CTTAAATC,0.0736
14,GCTATCAA,0.0706
15,ATACAGAT,0.0787
16,CCATGTTC,0.0828
17,ACAATACT,0.0785
18,CGTGAATC,0.0801
19,ATAATAGC,0.0778
20,TACTGTCA,0.0849
21,CCCCTGAG,0.0735
22,ATACTACA,0.083
23,GCGATACA,0.0824
24,AACCCAGG,0.0696
25,AACGTAGC,0.0749

row,Sequence,binding signal (normalized occupancy)
1,CTCGCTTC,0.0707
2,ACAAAGAT,0.0741
3,CTCGGTAA,0.0692
4,AAAACAGT,0.0767
5,AGCCCTAT,0.0737
6,AATCTAAT,0.0848
7,ACACACTA,0.0817
8,GGGACGAC,0.0641
9,CGTGGACA,0.0882
10,CATAATAA,0.0832
11,ACAGTTCA,0.0754
12,CGCAAAAC,0.071
13,GATTGTAC,0.0812
14,ACGGTAGA,0.0739
15,CGTAGCAC,0.0845
16,AGTCTGGG,0.0695
17,CTGCTAAC,0.0703
18,CTAGTCAA,0.073
19,CCCATTAA,0.0796
20,AAAATAGT,0.077
21,GGCTCTAA,0.0722
22,GACGGCAA,0.0705
23,ACCCTGAG,0.0718
24,ACCTAGGG,0.0695
25,AAAGTAGA,0.0741

row,Sequence,binding signal (normalized occupancy)
1,CACGTACG,0.0871
2,AACCACCC,0.0803
3,GTCTTGAA,0.069
4,GTGCACGA,0.0931
5,CGATGGGC,0.0743
6,GACCTAAA,0.0709
7,GCAAGACA,0.0782
8,ACCTACTG,0.0732
9,AACAATAT,0.0773
10,AGGACCGA,0.0724
11,TATGAGAA,0.0827
12,CCTCTGTC,0.0768
13,ATAGCAAG,0.079
14,CTATGCGA,0.0757
15,CTCGAATC,0.0698
16,AGTACGAC,0.0751
17,ACCACCAA,0.0753
18,ATATTCGC,0.0786
19,GCCACCGC,0.0708
